Results taken from a compilation of properties of binary mixtures (doi:10.1039/c7cp05886a).
The densities may have been worked out from excess volumes.

Test: xn = mol fraction of the nth substance listed
Conditions: 298.15 K, 100 kPa

CCCCCCCC[n+]1ccccc1.O=S(=O)([N-]S(=O)(=O)C(F)(F)F)C(F)(F)F + CCCCOC(C)=O
Conditions	mass density [kg/m3]
x2 = 0	1329
x2 = 0.2556	1279.4
x2 = 0.501	1208.7
x2 = 0.6984	1124.1
x2 = 0.7522	1091.9
x2 = 0.7996	1061.3
x2 = 0.8487	1021.8
x2 = 0.8996	984.1
x2 = 0.9493	934.9

CCCCOC(C)=O + CCCC[n+]1ccn(C)c1.O=S(=O)([N-]S(=O)(=O)C(F)(F)F)C(F)(F)F
Conditions	mass density [kg/m3]
x1 = 0.2414	1367.9
x1 = 0.481	1275.4
x1 = 0.6824	1168.2
x1 = 0.7372	1128.1
x1 = 0.7923	1086
x1 = 0.8427	1043.9

CCCCCCCCn1cc[n+](C)c1.O=S(=O)([N-]S(=O)(=O)C(F)(F)F)C(F)(F)F + CCCCOC(C)=O
Conditions	mass density [kg/m3]
x2 = 0.2622	1274.6
x2 = 0.5001	1205.5
x2 = 0.7503	1094.5
x2 = 0.797	1064.7
x2 = 0.8503	1026.6
x2 = 0.8976	985
x2 = 0.9305	954.6

CCCCCCCC[N+]1(C)CCCC1.O=S(=O)([N-]S(=O)(=O)C(F)(F)F)C(F)(F)F + CCCCOC(C)=O
Conditions	mass density [kg/m3]
x2 = 0	1289
x2 = 0.4969	1183.6
x2 = 0.6954	1107.5
x2 = 0.7499	1082.1
x2 = 0.8031	1048.1
x2 = 0.8484	1017.6
x2 = 0.9016	975.7
x2 = 0.9431	937.7
